In assay [1] the test system is RAW-Dual. Kind of assay: IRF Lucia reporter activity, fold change vs agonist alone; higher = enhanced IRF activity. The following applies: cytotoxicity flag (confluency mask): not cytotoxic, agonist: MPLA (TLR4) […]. Summed up: (§1)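 Cytotoxic wells were those whose IncuCyte confluency was below 70% of agonist controls in both mask sets. The cells were RAW-Dual macrophages at 50,000 cells/well in DMEM on 384-well plates, dosed with 50 nL of library stock by pin tool, stimulated with a PRR agonist 1 h later, and kept at 37 °C, 5% CO2 for 20 hours. IRF and NF-κB reporter activity, as fold change over agonist-alone wells, came from supernatant read by QuantiLuc luminescence and QuantiBlue absorbance, respectively.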

Assay [2] has as its system RAW-Dual. The assay is described as follows: IRF Lucia reporter activity, fold change vs agonist alone; cytotoxicity flag (confluency mask): not cytotoxic; higher = enhanced IRF activity. Summed up:
as §1

For assay [3], the system named is RAW-Dual. Kind of assay: IRF Lucia reporter activity, fold change vs agonist alone; cytotoxicity flag (confluency mask): cytotoxic (confluency <70% of control); higher = enhanced IRF activity. The method, boiled down:
as §1

Where [4] appears, read: library stock concentration (final ~1000-fold dilution): 10 mM.
[5] abbreviates: agonist: 3'3'-cGAMP (STING) 10 ug/mL.

Over roughly 2,900 compounds, “IRF Lucia reporter activity, fold change vs agonist alone” has its median near 0.9; the highest 2% begin near 2.8. This is one part of the list.

For the molecule `CC12CCC3C(CCC4CC(O)CCC43C)C1CCC2=O` (stereo not given), the “IRF Lucia reporter activity” value with RAW-Dual [1] (setting [4]) is 1.19.
Consider `CCN1CC2(COC)CCC(OC)C34C5CC6(O)C(OC)CC(OC(C)=O)(C5C6C(=O)c5ccc(OC)cc5)C(C(OC)C23)C14` (stereo not given) (library stock concentration (final ~1000-fold dilution): 10 mM), for which the results for the “IRF Lucia reporter activity” value in the assay with RAW-Dual [2] (setting [5]) and in the assay with RAW-Dual [2] (agonist: LPS (TLR4) 0.1 ug/mL) were 0.896 and 1.22, respectively.
Consider `CCN1CC2(COC)CCC(OC)C34C5CC6(O)C(OC)CC(OC(C)=O)(C5C6C(=O)c5ccc(OC)cc5)C(C(OC)C23)C14` (stereo not given), for which, in the assay with RAW-Dual [1] (setting [4]), the “IRF Lucia reporter activity” value came out at 1.01.
`Fc1cc(F)c2c(c1)C1C=CCC1C(c1cccnc1)N2` (stereo not given): in the assay on RAW-Dual [1] (setting [4]), the “IRF Lucia reporter activity” value is 0.0979.
Turning to `Fc1cc(F)c2c(c1)C1C=CCC1C(c1cccnc1)N2` (stereo not given) (library stock concentration (final ~1000-fold dilution): 10 mM), the “IRF Lucia reporter activity” value in the assay on RAW-Dual [2] (setting [5]) is 0.0147; with RAW-Dual [2] (agonist: LPS (TLR4) 0.1 ug/mL) it was 0.083.
As for `O=C(O)CCCc1ccc(N(CCCl)CCCl)cc1`, in the assay on RAW-Dual [1] (setting [4]), the “IRF Lucia reporter activity” value amounted to 0.988.
For `O=C(O)CCCc1ccc(N(CCCl)CCCl)cc1` (library stock concentration (final ~1000-fold dilution): 10 mM), the “IRF Lucia reporter activity” value with RAW-Dual [2] (setting [5]) was 0.892; in the assay with RAW-Dual [2] (agonist: LPS (TLR4) 0.1 ug/mL) it was 1.2.
In the case of `CN(CCC(N)CC(=O)NC1C=CC(n2ccc(N)nc2=O)OC1C(=O)O)C(=N)N.Cl` (stereo not given), the “IRF Lucia reporter activity” value in the assay with RAW-Dual [1] (library stock concentration (final ~1000-fold dilution): 10 mM water) stood at 1.1.
With `CN(CCC(N)CC(=O)NC1C=CC(n2ccc(N)nc2=O)OC1C(=O)O)C(=N)N.Cl` (stereo not given) (library stock concentration (final ~1000-fold dilution): 10 mM water), the figures for the “IRF Lucia reporter activity” value with RAW-Dual [2] (setting [5]) and in the assay on RAW-Dual [2] (agonist: LPS (TLR4) 0.1 ug/mL) were 0.578 and 0.594, respectively.
Turning to `CC12CCC3C(CC=C4CC(O)CCC43C)C1CCC2=O` (stereo not given), in the assay on RAW-Dual [1] (setting [4]), the “IRF Lucia reporter activity” value was 0.996.
On to `CC12CCC3C(CC=C4CC(O)CCC43C)C1CCC2=O` (stereo not given) (library stock concentration (final ~1000-fold dilution): 10 mM), for which the “IRF Lucia reporter activity” value in the assay with RAW-Dual [2] (setting [5]) worked out at 1.03; with RAW-Dual [2] (agonist: LPS (TLR4) 0.1 ug/mL) it was 0.8.
Take `COC(=O)CC(O)(CCC(C)(C)O)C(=O)OC1C(OC)=CC23CCCN2CCc2cc4c(cc2C13)OCO4` (stereo not given) (library stock concentration (final ~1000-fold dilution): 10 mM): the “IRF Lucia reporter activity” value was determined as 0.0132 with RAW-Dual [3] (setting [5]) and 0.0156 in the assay with RAW-Dual [3] (agonist: LPS (TLR4) 0.1 ug/mL).
In the case of `N#C/C(=C\c1ccc(O)cc1)C(=O)O` (library stock concentration (final ~1000-fold dilution): 10 mM), the figures for the “IRF Lucia reporter activity” value in the assay with RAW-Dual [2] (setting [5]) and with RAW-Dual [2] (agonist: LPS (TLR4) 0.1 ug/mL) were 0.896 and 1.28, respectively.
Turning to `O=C(CBr)c1ccc(O)cc1`, the “IRF Lucia reporter activity” value in the assay on RAW-Dual [1] (setting [4]) turned out to be 0.678.
Consider `O=C(CBr)c1ccc(O)cc1` (library stock concentration (final ~1000-fold dilution): 10 mM), for which the entries for the “IRF Lucia reporter activity” value with RAW-Dual [2] (setting [5]) and with RAW-Dual [2] (agonist: LPS (TLR4) 0.1 ug/mL) were 0.723 and 0.875, respectively.
Take `CCN(C)C(=O)Oc1cccc(C(C)N(C)C)c1` (stereo not given) (library stock concentration (final ~1000-fold dilution): 10 mM): the “IRF Lucia reporter activity” value with RAW-Dual [2] (setting [5]) turned out to be 1.03; in the assay on RAW-Dual [2] (agonist: LPS (TLR4) 0.1 ug/mL), 1.33.
Consider `CCN(C)C(=O)Oc1cccc(C(C)N(C)C)c1` (stereo not given), for which the “IRF Lucia reporter activity” value in the assay with RAW-Dual [1] (setting [4]) came out at 1.08.
As to `O=C1C=CCC2C3CCCN4CCCC(CN12)C34` (stereo not given) (library stock concentration (final ~1000-fold dilution): 10 mM), the “IRF Lucia reporter activity” value with RAW-Dual [2] (setting [5]) is 1.02; with RAW-Dual [2] (agonist: LPS (TLR4) 0.1 ug/mL) it was 0.943.
In the case of `O=C1C=CCC2C3CCCN4CCCC(CN12)C34` (stereo not given), the “IRF Lucia reporter activity” value in the assay on RAW-Dual [1] (setting [4]) turned out to be 1.
As to `CC1OC(OC2CC(O)C3(CO)C4C(O)CC5(C)C(C6=CC(=O)OC6)CCC5(O)C4CCC3(O)C2)C(O)C(O)C1O.O.O.O.O.O.O.O.O` (stereo not given), in the assay with RAW-Dual [1] (setting [4]), the “IRF Lucia reporter activity” value stood at 1.06.
For the molecule `CC1OC(OC2CC(O)C3(CO)C4C(O)CC5(C)C(C6=CC(=O)OC6)CCC5(O)C4CCC3(O)C2)C(O)C(O)C1O.O.O.O.O.O.O.O.O` (stereo not given) (library stock concentration (final ~1000-fold dilution): 10 mM), the “IRF Lucia reporter activity” value with RAW-Dual [2] (setting [5]) turned out to be 1.07; in the assay with RAW-Dual [2] (agonist: LPS (TLR4) 0.1 ug/mL), 1.18.
Taken in the same sequence, the figures for `COC(=O)Nc1nc2ccccc2[nH]1` (library stock concentration (final ~1000-fold dilution): 10 mM) were 1.14 and 1.04.
Take `COC(=O)Nc1nc2ccccc2[nH]1`: the “IRF Lucia reporter activity” value in the assay with RAW-Dual [1] (setting [4]) stood at 1.06.
Consider `CC(C)OC(=O)C(C)NP(=O)(COC(C)Cn1cnc2c(N)ncnc21)Oc1ccccc1` (stereo not given) (library stock concentration (final ~1000-fold dilution): 10 mM), for which the “IRF Lucia reporter activity” value is 1.11 with RAW-Dual [2] (setting [5]) and 1.34 with RAW-Dual [2] (agonist: LPS (TLR4) 0.1 ug/mL).
For `COc1cc(C(=O)OC2C3C=COC(OC4OC(CO)C(O)C(O)C4O)C3C3(CO)OC23)ccc1O` (stereo not given) (library stock concentration (final ~1000-fold dilution): 10 mM), the “IRF Lucia reporter activity” value in the assay on RAW-Dual [2] (setting [5]) came to 0.947; in the assay with RAW-Dual [2] (agonist: LPS (TLR4) 0.1 ug/mL) it was 1.07.
As to `C[N+](C)(C)CCCCCCCCCC[N+](C)(C)C`, in the assay with RAW-Dual [1] (setting [4]), the “IRF Lucia reporter activity” value amounted to 1.13.
As for `C[N+](C)(C)CCCCCCCCCC[N+](C)(C)C` (library stock concentration (final ~1000-fold dilution): 10 mM), the “IRF Lucia reporter activity” value in the assay with RAW-Dual [2] (setting [5]) amounted to 1.06; in the assay on RAW-Dual [2] (agonist: LPS (TLR4) 0.1 ug/mL) it was 1.31.
`O=C(O)CNC(=O)c1c(O)c2ccccc2n(Cc2ccccc2)c1=O`: in the assay with RAW-Dual [1] (setting [4]), the “IRF Lucia reporter activity” value stood at 1.02.
Consider `O=C(O)CNC(=O)c1c(O)c2ccccc2n(Cc2ccccc2)c1=O` (library stock concentration (final ~1000-fold dilution): 10 mM), for which the “IRF Lucia reporter activity” value with RAW-Dual [2] (setting [5]) was found to be 1.11; with RAW-Dual [2] (agonist: LPS (TLR4) 0.1 ug/mL), 0.841.

These data come from the supplement of paper PMC10037445.
